# “And” between values parts separate entries of the source, which are not always exact repeats. Equal values may be shown once. Out of some 270,000 compounds screened, about 5,800 (2.1%) were called active. Not shown: some 16% with an inconclusive outcome. The call rests on the fitted dose curve; in most records, active means well fitted inhibition curve with a large enough effect; inconclusive means small, poorly fitted or top-dose-only effect; inactive means flat fitted curve, though single readings scatter. The entries are a selection whose mix differs from that of the whole data set. Some compounds were tested as several samples or in several runs, with calls that do not always agree.
# Target: Microtubule-associated protein tau (Homo sapiens) (UniProt P10636)
# Assay: qHTS for Inhibitors of Tau Fibril Formation, Thioflavin T Binding; further: nearly all actives have a fitted effect of over 55% in size
# Conditions: recombinant tau K18 P301L (four-repeat tau fragment), heparin-induced fibrillization, ThT fluorescence; series mostly up to 57.4 µM; activity, negative = inhibition: at the top concentration
# In short: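 Aggregation was driven by heparin (20 uM final) acting on recombinant tau […] bearing P301L in 100 mM sodium acetate pH 7; fibrils were detected with Thioflavin T.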
# On the % scale 0 is the no-effect control and ±100 the full control effect; potency means the concentration at half of the fitted maximal effect.
# Sequence of UniProt P10636 (P10636 whole entry, looked up): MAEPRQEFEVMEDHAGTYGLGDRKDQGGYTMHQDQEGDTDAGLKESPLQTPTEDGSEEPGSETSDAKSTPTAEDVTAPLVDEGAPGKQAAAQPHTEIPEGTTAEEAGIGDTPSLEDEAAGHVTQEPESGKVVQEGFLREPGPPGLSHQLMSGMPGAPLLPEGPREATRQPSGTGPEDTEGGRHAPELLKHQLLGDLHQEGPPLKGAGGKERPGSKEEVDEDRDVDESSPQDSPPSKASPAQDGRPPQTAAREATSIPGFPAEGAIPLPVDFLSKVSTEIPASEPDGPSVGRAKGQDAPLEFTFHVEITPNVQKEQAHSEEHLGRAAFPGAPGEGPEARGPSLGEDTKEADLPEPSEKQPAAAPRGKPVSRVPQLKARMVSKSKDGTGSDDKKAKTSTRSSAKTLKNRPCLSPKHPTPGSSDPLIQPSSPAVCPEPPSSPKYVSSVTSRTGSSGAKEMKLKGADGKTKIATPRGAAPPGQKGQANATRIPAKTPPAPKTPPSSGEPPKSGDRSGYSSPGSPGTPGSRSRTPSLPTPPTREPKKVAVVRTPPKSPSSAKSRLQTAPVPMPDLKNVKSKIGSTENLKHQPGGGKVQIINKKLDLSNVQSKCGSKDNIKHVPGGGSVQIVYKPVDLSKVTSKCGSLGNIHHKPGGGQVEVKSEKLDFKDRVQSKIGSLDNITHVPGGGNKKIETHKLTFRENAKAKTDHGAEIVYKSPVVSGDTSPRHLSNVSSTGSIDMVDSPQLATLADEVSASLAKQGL
SMILES,Potency,"activity, negative = inhibition"
CN(C)CCC=C1c2ccccc2CCc2ccccc21,inactive,–
CC(=O)OC1C2C(OC(=O)Cc3ccccc3)C(C)CC2(OC(C)=O)C(=O)/C(C)=C/C2C(CC[C@@]13CO3)C2(C)C (stereo partly drawn),–,inactive: 3.95%
NN=C(N)N,inactive,–
CN[C@@H]1C[C@H](c2ccc(Cl)c(Cl)c2)c2ccccc21,–,inactive: -23.1%
N#CC(C#N)=NNc1ccc(OC(F)(F)F)cc1,active: 3.98 µM and active: 7.94 µM,–
C[C@]12CCC3C(CC[C@H]4C[C@H](O)CC[C@]34C)C1CC[C@@H]2C(=O)CO (stereo partly drawn),–,inactive: -17%
Oc1ccc2c3c1O[C@H]1c4[nH]c5ccccc5c4C[C@]4(O)[C@H](C2)N(CC2CC2)CC[C@@]314,–,inactive: -14.9%
COC(=O)c1cc2c(cn1)[nH]c1ccccc12,–,inactive: -15.1%
CC(N)C(O)c1ccc(O)c(O)c1 (stereo not drawn),–,inactive: -13.1%
CC1=NN=C(c2ccc(N)cc2)c2cc3c(cc2C1)OCO3,–,inactive: -12.1%
NC[C@H](CP(=O)(O)O)c1ccc(Cl)cc1,–,inactive: -7.66%
CN1CCC[C@H]1c1cccnc1,inactive,–
CC1OC(OC2C(O)CC(OC3C(O)CC(OC4CCC5(C)C(CCC6C5CCC5(C)C(C7=CC(=O)OC7)CCC65O)C4)OC3C)OC2C)CC(O)C1O (stereo not drawn),–,inactive: -22.5%
O=C1NCN(c2ccccc2)C12CCN(CCCOc1ccc(F)cc1)CC2,inactive,–
COC(=O)[C@@H]1C[C@@]1(C)[C@@H](NP(=O)(c1ccccc1)c1ccccc1)c1ccccc1,–,inactive: -1.6%
O=C(O)CNC(=O)C(CS)Cc1ccccc1 (stereo not drawn),–,inactive: -11.3%
Oc1c(Br)cc(Br)cc1Oc1ccc(Br)cc1Br,active: 31.6 µM,–

SMILES,Potency,"activity, negative = inhibition"
C/C(=C/C=C/[C@@H](C)C(=O)O)[C@H]1CN[C@H](C(=O)O)[C@H]1CC(=O)O,–,inactive: -8.62%
COc1ccc(CCCc2nnc(SCC(=O)Nc3ccc(C)c(C)c3)o2)cc1,–,inactive: -8.29%
N#CC(C#N)=Cc1cc(O)c(O)c([N+](=O)[O-])c1,active: 10 µM and active: 17.8 µM,–
C=CCN1CC[C@@]23c4c5ccc(O)c4O[C@H]2/C(=N\N=C2/CC[C@@]4(O)[C@H]6Cc7ccc(O)c8c7[C@@]4(CCN6CC=C)[C@@H]2O8)CC[C@]3(O)[C@@H]1C5,–,inactive: -14%
CNC(C)[C@@H](O)c1ccccc1 (stereo partly drawn),–,inactive: -1.27%
CSc1ccc(C(c2c(O)c3ccccc3oc2=O)c2c(C)n(C)n(-c3ccccc3)c2=O)cc1 (stereo not drawn),–,inactive: -7.29%
CC(C)(O)[C@H]1O[C@H]2CC[C@@]3(C)[C@@](O)(CC[C@H]4Cc5c([nH]c6ccccc56)[C@@]43C)C2=CC1=O,–,inactive: -13.6%
COc1cc(CNC(=O)CCCC/C=C/C(C)C)ccc1O,inactive,–
CN1CCN(C(=O)O[C@H]2c3nccnc3C(=O)N2c2ccc(Cl)cn2)CC1,–,inactive: -3%
COc1ccc(-n2c(=S)[nH]c3c(sc(=S)n3-c3ccccc3)c2=O)c(OC)c1,active: 31.6 µM,–
CN(C)[C@@H]1C(=O)C(C(N)=O)=C(O)[C@@]2(O)C(=O)C3=C(O)c4c(O)cccc4[C@@](C)(O)C3CC12 (stereo partly drawn),–,inactive: -9.02%
CC(CCC(=O)O)C1CCC2C3CC[C@H]4CC(O)CC[C@@]4(C)C3CC[C@@]12C (stereo partly drawn),–,inactive: -16.6%
CC(=O)OC1CCC2(C)C3=C(CCC2C1(C)C)[C@@]1(C)CCC(C(C)CCC=C(C)C)[C@@]1(C)CC3 (stereo partly drawn),–,inactive: -12.3%
CN1CC[C@@]2(c3cccc(O)c3)Cc3nc4ccccc4cc3C[C@H]2C1,–,inactive: -8.59%
CCn1c(NN=O)nc2ccccc21,active: 28.2 µM,–
Cc1ccc2cc3c(ccc4ccccc43)c3c2c1CC3,active: 15.8 µM,–

# Reference: PubChem BioAssay AID1460 (National Center for Advancing Translational Sciences (NCATS), 2008)
